From ChEMBL document CHEMBL4888484, “Replenishing the malaria drug discovery pipeline: Screening and hit evaluation of the MMV Hit Generation Library 1 (HGL1) against asexual blood stage Plasmodium falciparum ,using a nano luciferase reporter read-out” (2022)
Among all 150,000 compounds or so, about 540 (0.36%) showed an effect of 50% or more. This is one part of the list.

tested on: Plasmodium falciparum; test: Primary screen in NF54 nanoGlo assay, in single point, at 2uM, 72h; a lower Z score goes with more inhibition; assay type: functional, Erythrocyte; conditions: timepoint 72 hour

SMILES	% Inhibition	Z score
CC(C)=CC1C(C(=O)N2CCN(Cc3ccc4c(c3)OCO4)CC2)C1(C)C (centres undefined)	27%	-3.07
CO[C@H]1COC[C@@H]1NC(=O)c1ccc(-c2ccc(C)o2)cc1	-19%	3.33
CCCc1nc(CN(CC)C(=O)CCc2ccc3c(c2)OCO3)no1	-5%	0.67
Cc1nc(C(F)(F)F)c(CN(C)CC2(O)CCOCC2)s1	-1%	0.12
O=S(=O)(Cc1cc(F)ccc1F)N1CC[C@H](Oc2cccnn2)C1	-9%	1.38
CC1CC(C)CN(S(=O)(=O)c2ccc(C(=O)N3CC(=O)Nc4ccccc43)cc2)C1 (centres undefined)	7%	-0.91
COc1cc2c(cc1C(=O)N1C[C@@H]3c4ccccc4OC[C@]3(CO)C1)CCC2	-7%	0.88
C[C@@H](Cc1cccs1)NC(=O)c1ccncc1	-13%	1.86
CCCS(=O)(=O)N1CC[C@H](N2CCN(C)CC2)C1	-5%	0.6
Cn1cc(Nc2cccc(NC(=O)C3CC4CCC3O4)c2)cn1 (centres undefined)	-5%	0.63
Cc1cc(F)ccc1CC(C)NS(=O)(=O)N1CCCC(C(=O)O)C1 (centres undefined)	1%	-0.1
CC(=O)N1CC2(CCN(Cc3ccc(CC(C)C)s3)CC2)C[C@H]1C(=O)O	-3%	0.33
CC[C@H](NS(=O)(=O)N1CCCC1)c1ccc(C)cn1	-14%	2.14
COc1ccc(CCC(=O)N2CCC3(CC2)C[C@H](CN2CCOCC2)N(C)C3)cc1	4%	-0.54
Cc1nc2ccc(NC(=O)c3cn(Cc4ccccn4)nn3)cc2s1	-18%	1.96
O=C(CCC(F)(F)F)NCC[C@H]1CCCCN1C1CCCC1	-11%	1.87
O=C(NC1CC2CCC1C2)C1CC(=O)N(c2ccccc2)C1 (centres undefined)	-1%	0.09
Cc1ccccc1CNC(=O)CCc1ccc2c(ccn2C)c1	-19%	2.13
Cc1c(-c2ccnc(N3CCCC3)n2)cnc2nc(C(F)(F)F)nn12	-6%	0.73
CO[C@@]12CC[C@@H](Oc3ccccn3)C[C@@H]1N(C(=O)c1c[nH]c(=O)[nH]1)CC2	-14%	1.81
O=C(NC(Cc1ccccn1)[C@H]1C[C@H](O)C1)c1ccn2cnnc2c1 (some centres undefined)	2%	-0.36
O=C(c1cc(=O)[nH]c2ccc(F)cc12)N1CCCCCC1	-11%	1.35
COc1ccccc1N1CCN(C(=O)C2CCN(S(=O)(=O)Cc3ccc(Cl)cc3)CC2)CC1	-12%	2.28
CCc1cc(C(=O)N2C[C@H]3CCC[C@@H](C3)C2)ccn1	-6%	1.18
Cc1ccc(C)c(NC(=O)CN2CCN([C@H]3CCOC3)CC2)c1	4%	-0.44
COCCn1nnc2cc(S(=O)(=O)N3CCCC[C@H]3C(=O)Nc3ccccc3Cl)ccc21	-35%	3.06

SMILES	% Inhibition	Z score
COc1ccc(OC)c([C@@H]2CCCN2Cc2nc3cc(Cl)ccc3c(=O)[nH]2)c1	-26%	4.9
Cn1cncc1CNCc1cc(Br)c2c(c1)OCO2	-6%	0.75
CC(=O)N[C@H]1CN(C(=O)c2cnn3ccccc23)C[C@@H]1c1ccc(C)cc1	5%	-0.67
Cc1nn(C)c(C)c1-c1cc(C(=O)NCCCN2CCCC2=O)n(C)n1	-3%	0.27
COC(=O)c1ccc(Cn2nc(C3CCN(S(C)(=O)=O)CC3)n(C)c2=O)cc1	-4%	0.62
C/C(=C/c1ccccc1)C(=O)N1CCC[C@H](n2cnc3ccccc3c2=O)C1	-9%	1.46
CCc1cccc2c(C(CC(=O)NC(C)c3ccccc3)c3ccccc3)cn(CC)c12 (centres undefined)	-2%	0.37
O=C(NCc1ccc(F)cc1)c1cc(S(=O)(=O)N2CCOCC2)ccc1N1CCCCC1	-11%	1.9
CN(CC(=O)N1CCc2ccccc2C1)c1ccccc1	-9%	1.82
CC1(C)CN(C(=O)C2CCCCCC2)CCCO1	-1%	0.15
O=C(Nc1nccc2ccncc12)c1n[nH]c(=O)c2ccccc12	-17%	2.1
O=C(NCc1ccc(C2CC2)cc1)N1CCN2CCOC[C@@H]2C1	7%	-1.44
Cc1cc(C)n2ncc(CN3C[C@@H]4CC[C@H]3CN(Cc3ccccc3)C4)c2n1	-3%	0.32
COc1ccc(COc2ccc(=O)n(-c3ccc(C(=O)Nc4ccc(C)c(C)c4)cc3)n2)cc1	-10%	1.7
CC(C)C(=O)N1CC[C@H](Nc2ccc3nccnc3n2)C1	6%	-0.76
C=CC[C@H](NC(=O)OCc1ccccc1)c1ccccc1	7%	-1.39
OC(CF)c1cccc(-c2noc([C@]34CCC[C@H]3OCC4)n2)c1 (some centres undefined)	-9%	1.47
NC(=O)c1ccc(CNc2ncnc3oc(-c4ccccc4)cc23)o1	26%	-3.55
O=C(O)C1(Oc2ccc3c(c2)CCC3)CCN(c2cnccn2)CC1	-9%	1.45
O=C(c1ncccc1N1CCCCC1)N1CCc2[nH]nc(-c3ccno3)c2C1	-7%	0.65
O=S(=O)(CCC1CCCC1)N1CC[C@H](O)[C@@H](C2CCCC2)C1	-9%	1.42
Cc1nn(-c2ccc(Br)cc2)cc1-c1noc(C(=O)N[C@H]2CCCc3ccccc32)n1	-5%	0.72
CCC(=O)NC1CCC(Nc2nc(C)nc3c2c(C)nn3-c2ccccc2)CC1 (centres undefined)	4%	-0.55
CCN1CCN(C(=O)C(C)(C)C#N)[C@@H](C)C1=O	-6%	1.1
CCc1ccc2c(c1)C1OCCCC1C(c1ccc(F)cc1)N2 (centres undefined)	1%	-0.21
CCCc1cc(NC(=O)C[C@@H]2C[C@H]2c2ccccc2)n[nH]1	-12%	1.59
